# ± gives the standard deviation of the averaged measurements. The list shows a part of the results.
# System: PfAP2-G AP2 domain (GST-tagged)
# Test: gcPBM binding intensity (ln(normalized median fluorescence intensity)); higher = stronger DNA binding
# Summary of the method: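 After 1 h on an Agilent 4 × 180k array of primer-extended double-stranded 36-bp intergenic genomic probes and negative controls, bound GST-tagged P. falciparum DNA-binding domains were detected with Alexa488 anti-GST antibody and scanned at 488 nm. The domains had been expressed in E. coli, and binding took place in 1× PBS with 1% milk, 0.2 mg/ml BSA, 0.5% salmon testes DNA and 0.03% Triton X-100. Binding intensity is the highest Masliner-normalised natural-log median intensity across replicate spots of either probe orientation.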
row,Sequence,gcPBM binding intensity (ln)
1,AAAAAAAAAAAAAAAAAAAAAAAAAAAATACGAAAG [GTGCAC_negctrl_site729],10.9 ± 0.48
2,AATCATTTATTGATGGTGCAATATACCATCTAATGA [GTGCAC_site9440],10.05 ± 0.064
3,TATATTAAACTTTGCACACATAATTTAACTACAAAG [CACACA_site3441],10.2 ± 0.18
4,AAAAAAAAAAAACACACACACACACCCAAATATATA [CACACA_site150],10.06 ± 0.085
5,CATAATACATATAACACACACAATTATACATAAAAT [CACACA_site3233],10.1 ± 0.13
6,TTTTGAAAAAATTTTTATAAAAGAATAAAATTATTA [XGTACX_negctrl_site570],9.66 ± 0.16
7,AATATTTTACAATACACATGCAAATAATATTCTAAA [TGCATGCA_site618],9.845 ± 0.021
8,ATTTCTATAAAAATAATCTACATTTTTTTTTTTTTT [CACACA_negctrl_site917],9.57 ± 0.19
9,TATATACATATATATATATGTATAGATAGATACATT [CACACA_negctrl_site1511],9.74 ± 0.11
10,TAACCACAATTTTAATGTACATATATATTTATATAT [XGTACX_site8968],11 ± 0.54
11,TAAAAATGGAAACACACACACATAAATATATTTTAT [CACACA_site2513],10.05 ± 0.035
12,TTTTTCCATATTGTAGCATGCAGTATATATATCATG [TGCATGCA_site530],9.92 ± 0.014
13,TCTCATTTTCCCTAAAAAAAAAAATAAATAAAAATA [TGCATGCA_negctrl_site580],9.82 ± 0.32
14,AATGGGTTACACATATGTACATAAAATATAAAAAAT [XGTACX_site3440],11.4 ± 0.84
15,ATATTATTTATGTATGCATGCGGCGAAATGGGCTTG [TGCATGCA_site28],10.3 ± 0.2
16,ATGCTTTTGTCATGTGCACACACGTATATATTATAT [CACACA_site4163],10.5 ± 0.18
17,TTTTATCGATATATCTGTACATATTACTTATAATAA [XGTACX_site57],11 ± 0.65
18,TGCTATAATTTATATACACACAAATATATACTCATA [CACACA_site6111],9.98 ± 0.11
19,TATAACTATTTATAATGTACTCATGTATAATTATAT [XGTACX_site7913],11.3 ± 0.88
20,TTAATTTATTTATGCACACATATATAATTACACATA [CACACA_site4544],10.1 ± 0.27
21,TTTATATATTATATAAATATTATTATACTTTAAATA [TGCATGCA_negctrl_site236],9.635 ± 0.021
22,ACATGTATTTATAAGAGTACATATGTGTGCATGTTT [XGTACX_site7946],11.4 ± 0.7
23,TTTTTTTCCTTATCTATATATAATCAAATTTTCTAC [CACACA_negctrl_site867],9.855 ± 0.064

row,Sequence,gcPBM binding intensity (ln)
1,AACTTTTAGAAGAACACACACATATAGATTATGACC [CACACA_site6256],10.2 ± 0.014
2,TTATAACAAATATAGAGTACTAAAATTTTACGTTAT [XGTACX_site1410],11 ± 0.52
3,TTTATAATATACATAACACACAATTATTATTTCTTA [CACACA_site3624],9.68 ± 0.085
4,AAGGTTATTTATATATGTACTTAATATATATATATG [XGTACX_site886],11.1 ± 0.75
5,TCGAACATTAACATAACACACATATATATATATATA [CACACA_site2900],10.4 ± 0.95
6,TATATATATATAACATGTACATAAAATACATTTATA [XGTACX_site7370],11 ± 0.72
7,ACCATCCTTAATACTTATTTTTTCACAATTAAGTAA [GTGCAC_negctrl_site269],10.5 ± 0.36
8,TTTTTTTTTTCTTGTTGTACTTTTAATAATTCATAT [XGTACX_site4704],11.5 ± 0.93
9,TTATTAAAAAAAATATGTACTCACAATATAATATAT [XGTACX_site3738],11.4 ± 0.97
10,GAAATTTTTAAAAAGGTGCTTTTAACAAAAATTATT [GTGCAC_site9687],9.99 ± 0.16
11,TTAGCAACTATTACTACACACATTTGTATATAATTT [CACACA_site1591],10.04 ± 0.092
12,AAGGATATAAAAAAACGTACGTACGATAATATAATT [XGTACX_site1292],11.6 ± 0.91
13,AAAAAAAAAAAAAGATGTACATATATTTTTATTATA [XGTACX_site654],11.4 ± 0.96
14,AAGTTTTCTTACAGATGTACTTTTTAAAAATAAACT [XGTACX_site6632],11.4 ± 0.92
15,ATATATATCTATATTTGTACATATTACATTCAAGTT [XGTACX_site1749],10.9 ± 0.4
16,TTTAGGAAAGGCGGCACACATTTATATATTTATTTA [CACACA_site5931],9.98 ± 0.042
17,AGTATTTTAATTTCAGTGCATTTTATTCTATAATTA,10.1 ± 0.18
18,AAAAAAAAAAAAAATGCATGTGCGTAAATAATAATA [TGCATGCA_site793],10.2 ± 0.19
19,CACAAAAAAGTTCATACACACAACATATTTATATAT [CACACA_site2887],10.09 ± 0.035
20,ATCATTTTTTATGCGTGTACATAAATTTATTAGGTT [XGTACX_site2786],11.4 ± 0.85
21,TTTTTTGTTAAACCGGTGCATATAAATATATATATA [GTGCAC_site9989],10.1 ± 0.42
22,TAATTATTACACGGTATTATATATAATATGTTAAAA [GTGCAC_negctrl_site134],9.9 ± 0.042
23,TTTTTTTTTTTTCTGTGTACATATATAATATATATA [XGTACX_site1592],11.4 ± 0.98

row,Sequence,gcPBM binding intensity (ln)
1,ATATCTATATTTTAAAGTACGTAGTAAAAAGAAAAA [XGTACX_site4323],11 ± 0.69
2,TTGTAATGATATATTTGTACTTAATATAATTGTATA [XGTACX_site2748],10.9 ± 0.65
3,AATAAATTGAAACACACACACACATATATATATATA [CACACA_site848],10.2 ± 0.48
4,TTATGTCGTAAATACACACATACATATACATACACA [CACACA_site1374],10.2 ± 0.3
5,TTGTCACTAATAGATGCATGCAATCATTCCATTTTT [TGCATGCA_site938],9.86 ± 0.071
6,ATATAAAAATACAGGTGTACATTTTTTCATATTTAT [XGTACX_site6959],11.3 ± 0.74
7,TATTCTTATCTTACCACACACAATGTACGAAAAGAT [CACACA_site6296],11 ± 0.65
8,CAATATTATATTACTTGTACACATATGTAGTTTCGA [XGTACX_site8945],11.4 ± 0.64
9,TTTCCCATAGGAAAAACACACATATATTATATATAA [CACACA_site1981],9.825 ± 0.049
10,TAACAAAACATAGATTGTACATATTATAAATGTATA [XGTACX_site1543],10.8 ± 0.54
11,GTTACATACCTATACACACACATATATAAATAAATA [CACACA_site6549],10.2 ± 0.18
12,TTATTATGTATATATGCACACAATACCCAAAACAAC [CACACA_site80],10.7 ± 0.43
13,TAATATATATATAATACACACTATTTTAATCACATA [CACACA_site4849],9.84 ± 0.014
14,ATGTACTATGATAATGCATGCAATAATACATTTTTA [TGCATGCA_site318],10.9 ± 0.82
15,GAAAATATTTCTATCTGTACTTATTTATATATATAT [XGTACX_site7317],11.6 ± 1.1
16,AAAAATAATCATAGTAGTACAAAAAAAAAAAAAAAA [XGTACX_site3736],11.3 ± 1.1
17,TACGTAAATTCTAATACACACTATAGGATATTCTGC [CACACA_site7248],9.81 ± 0.099
18,TTTATTGCTCTATATGCACACCTTAATTCTTCATTT [CACACA_site8682],10.03 ± 0.021
19,GAAGATTTATCTTGCACACGCAAAAAAAAAAAAAAA [CACACA_site154],9.91 ± 0.42
20,TTCTATATATTATATGCATGTAAAACATATTAAAAT [TGCATGCA_site662],9.87 ± 0.12
21,TTTTTATGAAAATAAACACACGATTTATTATATATA [CACACA_site1311],9.715 ± 0.007
22,TGCATGTAATTTTTGTGTCCACATAAAATATTTAAT [XGTACX_site5652],11.6 ± 1
23,TTTTTCAATTGTAGTGGTACAGATATAATTATCTCT [XGTACX_site5500],11.4 ± 0.88

row,Sequence,gcPBM binding intensity (ln)
1,ATATGTACAAGTTATACACACATGTACAGTTATATA [CACACA_site6706],11.6 ± 0.91
2,TTTAACATTTCAGATGTGCACATTTTCCGAACCAGT,10.7 ± 0.47
3,TTACATACATACAAGTGTACGCATATATTAATATTA [XGTACX_site4006],11.8 ± 1
4,AGAACGACTAAGCAGTGTACATTTTGTATATACAAT [XGTACX_site2831],11 ± 0.59
5,TAAATGTGTATATATTGTACAAATATTAATACATAC [XGTACX_site8102],10.8 ± 0.34
6,AAATTGTTAAAAAGAAGTACATTCTTTTATTTCTTA [XGTACX_site540],11.3 ± 0.71
7,AAAGAACTTAATGCTGCACACAAAAAAAAGGAAAAA [CACACA_site8375],10 ± 0.27
8,TGATATTTTTCCATAGTGCAAAATATAGTAATGTAT,10 ± 0.2
9,ATAATGAAGACTTTTTTACACACTTCATATATTATA [CACACA_site8630],10.01 ± 0.042
10,ACAAACTAAAAAAGAAGTACAAATCGTATTAATAAT [XGTACX_site8684],11.4 ± 0.82
11,TTTTTTGAAAATAAAAGTACAAATTTTATATTTAAA [XGTACX_site2758],11 ± 0.88
12,TATTATATATGGAAGTAATAATATATATATATATAT [GTGCAC_negctrl_site63],9.8 ± 0.25
13,AGAAAAAAACGGTACAGTACACATAAACTAATTATT [XGTACX_site8617],11.5 ± 0.99
14,GATTAAATTTGACACTGTACAAAAAATAAAATGAGG [XGTACX_site504],11 ± 0.6
15,ATGAATATAAAATATACACACTTATATATTGAATGA [CACACA_site4274],9.725 ± 0.078
16,GTTAATTCATTAAGGACACACAAAAAAAAAAAAAAA [CACACA_site998],10.8 ± 0.79
17,AAACAACATGGACACGCACACACAAAAAAAGCATGC [CACACA_site73],11 ± 0.48
18,TTAACAAAATTTCCGTGTACGTAAATAAGAACATAG [XGTACX_site7200],11.8 ± 0.95
19,CCAACATAGAGGGGCACACACATATATACATAAAAA [CACACA_site1847],10.8 ± 0.65
20,AGTATACATATATATACACACACATATATATATATA [CACACA_site7883],10 ± 0.37
